# Data taken from the supplement of paper PMC11417369.
# ± gives the standard deviation of the averaged measurements. This is one part of the list.
# System: PfAP2-EXP AP2 domain (GST-tagged)
# Assay: gcPBM binding intensity (ln(normalized median fluorescence intensity)); higher = stronger DNA binding
# Procedure, shortened: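 Alexa488 anti-GST antibody, scanned at 488 nm, detected GST-tagged P. falciparum DNA-binding domains that had been expressed in E. coli and incubated for 1 h on an Agilent 4 × 180k array. The array carried primer-extended double-stranded 36-bp intergenic genomic probes and negative controls. Binding intensity is the highest Masliner-normalised natural-log median intensity across replicate spots of either orientation of each probe.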
row,Sequence,gcPBM binding intensity (ln)
1,AATAACCACAGACACACACACATATAAATATAAATA [CACACA_site7631],8.64 ± 0.46
2,ATATATATGTATACATGTACATATTTTATTATGTGC [XGTACX_site7207],8.64 ± 0.15
3,GTGATTAATATATACACACATACATATATATATATA [CACACA_site2817],10 ± 0.35
4,AAAAGTAAAAAAAAAAAAAGTAAAAAAAAAAAAAAA [CACACA_negctrl_site389],8.21 ± 0.43
5,TTACAGATATTTATCTGTACATATATTTAAAAATAT [XGTACX_site7431],8.26 ± 0.25
6,TAATTTTTTTAAAAGCGTACATTTAAAAAAAAATAT [XGTACX_site2736],8.37 ± 0.27
7,TTTTTAAATTCTTTAATATGTTTTATATATCAAAAT [CACACA_negctrl_site75],8.08 ± 0.34
8,TCTTATCATTTTAAATCACACACATATATATATATA [CACACA_site8925],10.2 ± 0.16
9,TTATTTTATTTAGGGTGTACCCAATTTTTCCATATG [XGTACX_site4957],8.66 ± 0.36
10,ACTGTAATATTGAAAGTGCATTAAAGTGTATATTAT [GTGCAC_site9970],8.94 ± 0.11
11,AAAAATTTTTTACATCGTACAGATATATATAATAAA [XGTACX_site3331],8.66 ± 0.41
12,TCCTATAATTTTTTAATCAAAATATTTTATCCTTTG [CACACA_negctrl_site793],8.39 ± 0.36
13,ATTTATATTTATAAATGTACACATATATATTTCATT [XGTACX_site2723],8.48 ± 0.32
14,TGTATATTTGATTCATGTACATATTTTATTTTAACT [XGTACX_site5169],8.78 ± 0.23
15,CCTATATAATTATAATGTACTTGTAAAAAATATAAC [XGTACX_site2864],8.7 ± 0.4
16,CAGATTTATTCAAACGCATGCTGTTTTAAAATAAAA [TGCATGCA_site874],8.65 ± 0.47
17,AAATATAAAAAATATACACACATATATAATATATAT [CACACA_site2963],8.41 ± 0.33
18,TAAGACTATTAAAAAATTGAGTACATGAACTGTTCA [GTGCAC_negctrl_site670],8.28 ± 0.31
19,TTTAAAATATTAAAATGTACATATATATATATATAT [XGTACX_site6784],10.1 ± 0.3

row,Sequence,gcPBM binding intensity (ln)
1,ATCCGCTGCCTTTTGGTGCAGAACATAATCATGTAA,8.54 ± 0.19
2,ACATAAATATATTTTTCACACATCCTTAGTTATGAA [CACACA_site5179],8.68 ± 0.49
3,TATATATATATATATACACACATACATATATATATT [CACACA_site8185],10.1 ± 0.4
4,AATGTATTTAAACTGACACACAAAAAAAATAAAATA [CACACA_site2138],8.75 ± 0.51
5,ATATTGTAAGTAAACACACACACATCTATAGGTATA [CACACA_site6462],8.7 ± 0.56
6,ATTATACATATGTATGCACACATACATACACATATA [CACACA_site9155],8.66 ± 0.3
7,AATAGTAAAAGATATACACACACCAAAAAATAGAAT [CACACA_site2289],9.15 ± 0.46
8,TAATTTAAGAAAAAATGTACACAAATATAATAATAG [XGTACX_site8317],8.83 ± 0.34
9,ATATATATATGTTTATGTACTTATAATAATATAACT [XGTACX_site4828],9.47 ± 0.085
10,ATACATATATGTGTGTGTACATAAATGTATATATTT [XGTACX_site6242],8.53 ± 0.26
11,AACTTTATTCCTAATTGTACACATATATATATATAT [XGTACX_site6823],10.2 ± 0.16
12,GTATCTTTCAAAATATGTACATATATATATGTGTGT [XGTACX_site3512],8.91 ± 0.35
13,GCATGGAACCATATATGTACATATATAAATAAATAA [XGTACX_site4996],8.79 ± 0.47
14,CGTATAACATATGACACACACACATACATACACAAA [CACACA_site1803],8.74 ± 0.49
15,GATTTATATAATTCAAGTACTAAAAATATTTTTAAT [XGTACX_site5285],8.46 ± 0.25
16,TAACATTAAAATAAAAGTACTTAATAATATTAAGTA [XGTACX_site5920],8.31 ± 0.42
17,AAAAAAAATATCTATGCATGTAATATTATGATATTG [TGCATGCA_site546],8.52 ± 0.28
18,TTAATAATAAATGAAAGTACATATAAAAAAAAAAAA [XGTACX_site717],8.61 ± 0.47
19,TAAAATTTTTGTTTTTGTACGAAACATCAATTTTAC [XGTACX_site4963],8.45 ± 0.56

row,Sequence,gcPBM binding intensity (ln)
1,TTCTATATATTTGGAAGTACATTATATTTATTTTTT [XGTACX_site3172],8.44 ± 0.33
2,CATATATAAATATGTACACACATATGTATGATCTCA [CACACA_site3868],8.4 ± 0.26
3,TTATTTATAAGTAATATTATATATTCTTTTAATACA [CACACA_negctrl_site471],7.93 ± 0.37
4,ATAGGCAAAAAGTGTACACATTCATTTATATAAATA [CACACA_site4480],8.88 ± 0.36
5,AGATCTATTATTTTTTGTACTTATATATAAACTTAA [XGTACX_site1737],8.72 ± 0.36
6,AATGGTATAAACAATACACACATAATATAAATATTG [CACACA_site6878],8.3 ± 0.42
7,TTATATATAAATGTGTGTACTTATAAAATAATCATT [XGTACX_site5370],8.44 ± 0.22
8,AAAAAAATTACGCAAGTGCATATAATTTAACAAAAA,8.37 ± 0.29
9,ATATATATATATCACGCACACACGAATTTTAAATAT [CACACA_site3131],10.2 ± 0.2
10,ATCGCGAAGTAGCATTCACACACAGCAAAATATATA [CACACA_site9162],8.71 ± 0.67
11,AACATTTATATAAAAGAACACACATATAAAATATTA [CACACA_site9199],8.45 ± 0.49
12,AATGGTAATCCACATACACACACACCGACACATATA [CACACA_site8876],8.72 ± 0.49
13,AAATAACAAAAGAAGGTGCTCATAAAAATTCATACA [GTGCAC_site9864],8.68 ± 0.41
14,CATTTACCCTTATTAACACACAAAATAAAATACGCT [CACACA_site7249],8.53 ± 0.45
15,AAAAAAAAAAAAAAAAAAAAAAAAAAAAAAAAAAAA [CACACA_negctrl_site204],9.385 ± 0.064
16,ATACAATGATATATACATATATATATATATATATAT [TGCATGCA_negctrl_site359],10.2 ± 0.49
17,AAATTATAAAAAAAAAAAAAAAAAAAAAAAAAAAAA [XGTACX_negctrl_site501],7.95 ± 0.35
18,AACAATAGTAAAAATACACACATTAAACTTCATTTC [CACACA_site2126],8.41 ± 0.38
19,AATCATGCTCCGGAAAGTACATAAATAAATAAATAA [XGTACX_site1690],8.86 ± 0.42
